Reference: PubChem BioAssay AID1671194 (National Center for Advancing Translational Sciences (NCATS), 2021)
In all, about 140,000 compounds went through this assay and about 240 (0.17%) were called active. The shares of active, inactive and inconclusive entries below differ from those in the screen. Calls follow the shape of the dose curve; as a rule, active = well fitted inhibition curve with a large enough effect; inconclusive = small, poorly fitted or top-dose-only effect; inactive = no such curve, though single readings can be large or run the other way. Potencies of inconclusive entries are doubtful fits and often do not repeat.

Assay: Primary qHTS assay for inhibitors of alpha-synuclein gene (SNCA) expression; also: nearly all actives have a fitted effect of over 45% in size
Settings: HEK-293 SNCA-luciferase knock-in, luminescence, 24 h; series mostly up to 57.2 µM
Potency is read from the fitted curve at half-maximal effect; tags tell the direction and shape of the fitted curve.

Potency, inconclusive:
Cc1ccc(-c2cn[nH]c2C2CCCN(C(=O)c3cnc(C)s3)C2)cc1 (stereo not given) 7.94 µM [inhibitor, partial curve, poor fit]
CN(C)C[C@@H]1CN(Cc2ccncc2)C[C@H]1NC(=O)c1ccc(F)cc1 39.8 µM [inhibitor, single point]
CCC1CN(C(=O)NCc2cccc(OC)c2)c2cc(Cl)ccc2O1 (stereo not given) 39.8 µM [inhibitor, single point]
C#CCNC(=O)c1nc(-c2ccc(Cl)cc2Cl)c2ccccn12 5.01 µM [inhibitor, full curve]
CCCCC1CCC(C(=O)N2CC(=O)Nc3ccc(F)cc3C2c2ccc(F)cc2)CC1 (stereo not given) 28.2 µM [inhibitor, single point]
CCN(CC)C(=O)[C@@H]1CCC[C@@H](NC(=O)c2ccc(OC)cc2)CN(C)C(=O)C1 11.2 µM [inhibitor, single point]
COc1ccc(N2CC(NC(=O)COc3ccccc3F)CC2=O)cc1OC (stereo not given) 31.6 µM [inhibitor, single point]
O=C(NC1CC1)c1cc2c(=O)[nH]c(-c3ccccc3)cn2n1 3.16 µM [inhibitor, single point]
O=C(c1ccccc1)N1CCC(C(=O)N2CCC(c3nc4ncccc4[nH]3)C2)CC1 (stereo not given) 15.8 µM [inhibitor, single point]
Cc1cc(C)c(S(=O)(=O)N2CCC(C)(c3noc(C)n3)CC2)c(C)c1 39.8 µM [inhibitor, single point]
O=C1CC(c2ccccc2)N(Cc2ccc(F)c(F)c2)CCCCCN1 (stereo not given) 39.8 µM [inhibitor, single point]
COc1ccc2cc(C(=O)N3C[C@@H](CO)[C@H](c4ccccn4)C3)[nH]c2c1 3.16 µM [inhibitor, partial curve, poor fit]
CC(C)Cn1c(=O)c2ccccc2n2c(CCC(=O)N3CCN(c4cccc(Cl)c4)CC3)nnc12 25.1 µM [inhibitor, partial curve, poor fit]
O=C(Nc1ncc(-c2cc(C(F)F)nn2-c2c(Cl)cccc2Cl)s1)C1CC1 9.61 µM [inhibitor, partial curve, poor fit]
COc1ccc(S(=O)(=O)N(CCc2ccccc2)CC(=O)NCc2ccccc2)cc1 7.08 µM [inhibitor, single point]
COc1ccc(Cl)cc1-c1ccc2c(c1)C(=O)N1CCN(C(=O)c3ccc(N(C)C)cc3)C[C@@H]1C(=O)N2 12.6 µM [inhibitor, single point]
Cc1c(C(=O)NC(C)c2ccccc2)sc2ncnc(N(C)C3CCCCC3)c12 (stereo not given) 2.82 µM [inhibitor, full curve]
Cc1ccc(-c2c(CN3CCN(c4cc(C)ccc4C)CC3)csc2C)cc1 35.5 µM [inhibitor, single point]
O=C(N[C@H]1CO[C@H]2[C@@H]1OC[C@@H]2Nc1nccc(-c2cccs2)n1)C1CCCCC1 11.2 µM [inhibitor, single point]
CC(C)CCNC(=O)c1cnc2n1CCN(Cc1cccc(C#N)c1)CC2 35.5 µM [inhibitor, single point]
Cn1cc(-c2ccc3c(n2)CN(Cc2ccc(C(F)(F)F)cc2)C(=O)CO3)cn1 14.1 µM [inhibitor, partial curve, poor fit]
CCCC(C)C(=O)N1CCc2[nH]nc(C(=O)NCCCc3ccccc3)c2C1 (stereo not given) 25.1 µM [inhibitor, partial curve, poor fit]
CCn1c(C(=O)N2CCC(C(=O)N3CCN(c4cc(C)ccc4C)CC3)CC2)cc2sccc21 39.8 µM [inhibitor, single point]
Cc1ccccc1C(=O)N1CCC2(CC1)N=C(c1cccc(Br)c1)NO2 39.8 µM [inhibitor, single point]
COc1cccc(Nc2n[nH]c(C(O)c3cccc(C(F)(F)F)c3)n2)c1 (stereo not given) 14.1 µM [inhibitor, partial curve, poor fit]
COC(=O)[C@H](CC1CCCCC1)NC(=O)[C@H]1CN(C(=O)c2cccc(F)c2)CCN1C(C)=O 10 µM [inhibitor, partial curve, poor fit]
COc1cccc(C2CC(=O)Nc3cc4c(cc32)OCO4)c1OC(C)C (stereo not given) 15.8 µM [inhibitor, partial curve, poor fit]
Cc1nc(-c2ccccc2)n(CC(=O)Nc2ccc(C(C)C)cc2)c(=O)c1CCO 17.8 µM [inhibitor, single point]
Cc1ccc(C)c(N2CCN(C(=O)c3cc(-c4ccncc4)cn3C)CC2)c1 39.8 µM [inhibitor, single point]
Cn1nc(-c2ccccc2F)c2cc(C(=O)NCCc3ccc(Cl)cc3)sc21 39.8 µM [inhibitor, single point]
Cc1cccc(-n2c(Cc3ccccc3)nnc2SCc2nc(-c3cccs3)no2)c1 28.2 µM [inhibitor, partial curve, poor fit]
O=C(CN1C(=O)COc2ccc(S(=O)(=O)N3CCCC3)cc21)N1CCN(c2ccc(F)cc2)CC1 20 µM [inhibitor, partial curve, poor fit]
CCOC(=O)c1ccc(N2C(=O)c3n[nH]c(-c4ccco4)c3C2c2ccc(O)c(OCC)c2)cc1 (stereo not given) 28.2 µM [inhibitor, partial curve, poor fit]
Cc1cccc(Nc2nnc(-c3ccc(C)c(S(=O)(=O)NCC4CCCO4)c3)c3ccccc23)c1 (stereo not given) 17.8 µM [inhibitor, single point]
O=C(CNC(=O)c1ccc(-c2cnc3ccccc3c2)cc1)NCCc1cccc(F)c1 10 µM [inhibitor, partial curve, poor fit]
Cc1cc(F)ccc1-c1[nH]nc2ncc(-c3ccc([S+](C)(=O)[O-])cc3)nc12 3.55 µM [inhibitor, full curve, poor fit]
COc1ccccc1CC(=O)NC1CCN(c2cc(C)cc(C)c2)C1=O (stereo not given) 0.708 µM [inhibitor, full curve, poor fit]
CCc1ccccc1Nc1nn2c(=O)c3ccc(C(=O)NC(C)c4ccccc4)cc3nc2s1 (stereo not given) 3.16 µM [inhibitor, partial curve, poor fit]
C#CCN1C(C)=C(C(=O)OC)C(c2cccc([N+](=O)[O-])c2)C(C(=O)OCC)=C1C (stereo not given) 28.2 µM [inhibitor, single point]
COc1ccc(Cl)cc1NC(=O)c1nnn(Cc2cccc(C(F)(F)F)c2)c1N 0.562 µM [inhibitor, partial curve, poor fit]
CC(C)C[C@@H]1N[C@H](C(=O)NC2CCCC2)Cc2c[nH]c3cccc1c23 31.6 µM [inhibitor, single point]

Potency, active:
COc1ccc(-c2[nH]nc3ncc(-c4cccnc4)nc23)cc1F 2.82 µM

Potency, inactive:
CC(C)CNC(=O)c1nc2cccnc2n(C2CC2)c1=O
COCCn1c(=O)c(C(=O)NC2CC2)nc2cccnc21
O=C(Cc1cccc(Cl)c1)NC1CCN(c2cc(-c3cccs3)[nH]n2)C1 (stereo not given)
O=C(CN1CCCc2nc(C3CC3)ncc2C1=O)NCc1ccccn1
CCS(=O)(=O)Nc1ccc(-c2nc(C3CCOC3)no2)cc1 (stereo not given)
COc1ccc(CNC(=O)Cn2nc(C)n3cccc3c2=O)cc1
COc1ccc(CNC(=O)c2nc3cccnc3n(Cc3ccc(OC)cc3)c2=O)cc1
CSCC(=O)N[C@H]1CCN2C(=O)c3cc(-c4cccs4)ccc3NC(=O)[C@H]12
Cc1nn2c(c1-c1ccccc1C(C)C)N(Cc1ccc(C(=O)O)cc1)CCC2
COc1ccccc1CN1CC(c2noc(-c3sccc3C)n2)CC1=O (stereo not given)
COc1ccc(-c2nc3c(c(=O)[nH]2)CCN(S(=O)(=O)c2cccc4cccnc24)C3)cc1
O=C(NCc1cccs1)C1CCN(C(=O)c2ncn3c2COC(c2ccccc2)C3)CC1 (stereo not given)
O=C(NC1CCN(Cc2cccc(-c3ccc(F)c(F)c3)c2)CC1)c1ccc(F)cc1
O=C(CNC(=O)c1cccc(-c2ccsc2)c1)NCc1ccc(F)cc1F
O=C(c1ccc2nccn2c1)N1CCC(Cc2ccccc2)CC1
Cc1ccc(-n2c(C3CCN(C(=O)c4ccc(C#N)cc4)CC3)n[nH]c2=O)cc1
CCC(=O)N1CCc2c(C(=O)NCC(C)C)cccc21
COc1ncc(-c2cc(C(=O)NCc3cnn(C)c3)c3c(c2)N(C)CCO3)cn1
CN1CCC(N2CCC(CN(Cc3ccncc3)C(=O)c3cnc[nH]3)CC2)CC1
Cc1ncccc1C(=O)N1CCCn2ccnc2C1c1ccccc1 (stereo not given)
CCOc1ccc(-c2cc3c(=O)n(CCNC(=O)c4ccc(C)cc4)ccn3n2)cc1
Cn1ccc2c(C(=O)NCCc3cnc[nH]3)nc(-c3ccccc3)cc21
COc1ccc(OCC(=O)Nc2cc(-c3nc4ccccc4s3)ccc2C)cc1
